Reference: the supplement of paper PMC4967469
Lines with a small IC50 respond at low doses; a limit (>, <) means that the fit lies beyond the doses tested. The AUC spans the tested range (256-fold, ending at the top dose) of the same fit; values near 1 show little effect. An inferred top dose was calculated from the reported fits.

How the values were obtained:
Test in all cases: Viability of human cancer cell lines after 72 h of drug (GDSC screen)
PFI-1 = compound: COc1ccccc1S(=O)(=O)Nc1ccc2c(c1)CN(C)C(=O)N2 [PFI-1]; conditions: top dose 10 µM; top dose inferred
Protocol: (§1)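 Human cancer cell lines in 384-well plates, medium with 10% serum, drug for 72 h over a 256-fold dose range (nine 2-fold or five 4-fold steps up to the top dose). Adherent lines were fixed and stained with the nucleic acid dye Syto60, suspension lines read with resazurin; signal relative to control wells, capped at 0 and 100%. One two-parameter sigmoid per drug and line, fitted in a mixed model over all curves with the slope shared within a line.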

Tipifarnib = compound: Cn1cncc1[C@@](N)(c1ccc(Cl)cc1)c1ccc2c(c1)c(-c1cccc(Cl)c1)cc(=O)n2C [Tipifarnib]; conditions: top dose 16 µM; top dose inferred
Protocol: as §1

GSK-1904529A = compound: CCc1cc(Nc2nccc(-c3c(-c4ccc(OC)c(C(=O)Nc5c(F)cccc5F)c4)nc4ccccn34)n2)c(OC)cc1N1CCC(N2CCN(S(C)(=O)=O)CC2)CC1 [GSK-1904529A]; conditions: top dose 1.024 µM; top dose inferred
Protocol: as §1

BMS-509744 = compound: COc1cc(C)c(Sc2cnc(NC(=O)c3ccc(CNC(C)C(C)(C)C)cc3)s2)cc1C(=O)N1CCN(C(C)=O)CC1 [BMS-509744]; conditions: top dose 10.24 µM; top dose inferred
Protocol: as §1

NG-25 = compound: CCN1CCN(Cc2ccc(NC(=O)c3ccc(C)c(Oc4ccnc5[nH]ccc45)c3)cc2C(F)(F)F)CC1 [NG-25]; conditions: top dose 10.24 µM; top dose inferred
Protocol: as §1

| Cell Line | AUC (PFI-1) | IC50 (PFI-1) [µM] | AUC (Tipifarnib) | IC50 (Tipifarnib) [µM] | AUC (GSK-1904529A) | IC50 (GSK-1904529A) [µM] | AUC (BMS-509744) | IC50 (BMS-509744) [µM] | AUC (NG-25) | IC50 (NG-25) [µM] |
| --- | --- | --- | --- | --- | --- | --- | --- | --- | --- | --- |
| HUTU-80 (digestive system, adherent) | 0.947 | > 10 | 0.303 | 0.313 | 0.975 | > 1.02 | 0.773 | 3.33 | 0.824 | 4.75 |
| MC116 (B-cell lymphoma, suspension) | 0.976 | > 10 | 0.753 | 4.08 | 0.998 | > 1.02 | 0.987 | > 10.2 | 0.804 | 3.47 |
| NEC8 (testis, adherent) | 0.821 | 4.67 | 0.881 | 12.4 | 0.99 | > 1.02 | 0.986 | > 10.2 | 0.886 | 8.32 |
| DG-75 (Burkitt lymphoma, suspension) | 0.622 | 1.36 | 0.947 | > 16 | 0.987 | > 1.02 | 0.915 | > 10.2 | 0.859 | 8.7 |
| KU812 (chronic myeloid leukaemia, suspension) | 0.806 | 4.56 | 0.328 | 0.348 | 0.988 | > 1.02 | 0.861 | 7.43 | 0.093 | < 0.04 |
| RPMI-8226 (myeloma, suspension) | 0.791 | 3.85 | 0.841 |  | 0.987 | > 1.02 | 0.901 | 10.2 | 0.933 | > 10.2 |
| OCI-AML2 (acute myeloid leukaemia, suspension) | 0.641 | 1.38 | 0.562 | 1.41 | 0.995 | > 1.02 | 0.908 | 7.67 | 0.858 | 5.23 |
| A3-KAW (B-cell lymphoma, suspension) | 0.547 | 0.819 | 0.404 | 0.578 | 0.991 | > 1.02 | 0.925 | > 10.2 | 0.708 | 2.14 |
| KARPAS-422 (B-cell lymphoma, suspension) | 0.901 | > 10 | 0.805 | 7.93 | 0.988 | > 1.02 | 0.912 | > 10.2 | 0.887 | > 10.2 |
| RS4-11 (leukaemia, suspension) | 0.94 | > 10 | 0.58 | 1.62 | 0.979 | > 1.02 | 0.827 | 5.56 | 0.86 | 7.43 |
| MC-CAR (haematopoietic neoplasm, suspension) | 0.791 | 3.97 | 0.649 | 2.46 | 0.988 | > 1.02 | 0.963 | > 10.2 | 0.769 | 3.48 |
| KELLY (neuroblastoma, adherent) | 0.908 | > 10 | 0.808 | 7.4 | 0.983 | > 1.02 | 0.936 | > 10.2 | 0.77 | 3.55 |
| no-10 (glioma, adherent) | 0.864 | > 10 | 0.817 | 11.6 | 0.929 | > 1.02 | 0.889 | > 10.2 | 0.968 | > 10.2 |
| CMK (acute myeloid leukaemia, suspension) | 0.76 | 3.03 | 0.241 | 0.208 | 0.991 | > 1.02 | 0.929 | > 10.2 | 0.575 | 0.99 |
| RXF393 (kidney, adherent) | 0.965 | > 10 | 0.881 | > 16 | 0.977 | > 1.02 | 0.872 | > 10.2 | 0.676 | 2.42 |
| NCI-H1155 (large cell lung carcinoma, suspension) | 0.954 | > 10 | 0.993 | > 16 | 0.993 | > 1.02 | 0.992 | > 10.2 | 0.959 | > 10.2 |
| EJM (lymphoid neoplasm, semi-adherent) | 0.922 | > 10 | 0.959 | > 16 | 0.992 | > 1.02 | 0.966 | > 10.2 | 0.877 | 7.49 |
| SW872 (soft tissue, adherent) | 0.711 | 2.3 | 0.534 | 1.23 | 0.966 | > 1.02 | 0.9 | > 10.2 | 0.948 | > 10.2 |
| GI-1 (glioma, adherent) | 0.749 | 3.13 | 0.705 | 3.68 | 0.987 | > 1.02 | 0.892 | > 10.2 | 0.833 | 6.21 |
| SW684 (fibrosarcoma, adherent) | 0.921 | > 10 | 0.949 | > 16 | 0.951 | > 1.02 | 0.933 | > 10.2 | 0.983 | > 10.2 |
